Hit rate of the full screen: of about 350,000 compounds, about 9,900 (2.8%) were called active. The shares of active, inactive and inconclusive entries below differ from those in the screen. Calls follow the shape of the dose curve; as a rule, active = well fitted activation curve with a large enough effect; inconclusive = small, poorly fitted or top-dose-only effect; inactive = no such curve, though single readings can be large or run the other way. No potency is given beside an inconclusive call; the fits are too rough.
Test: A quantitative high throughput screen for small molecules that induce DNA re-replication in MCF 10a normal breast cells. Also: nearly all actives have a fitted effect of over 50% in size. As to activity, positive = re-replication: % of control where 0% means no effect.
Conditions: MCF 10A DNA re-replication, Hoechst nuclear intensity, 48 h; activity, positive = re-replication: at 46.1 µM (top of the series)
Potency is read from the fitted curve at half-maximal effect; tags tell the direction and shape of the fitted curve.

| SMILES | Potency | activity, positive = re-replication |
| --- | --- | --- |
| CC(=O)c1c(C)[nH]c(C(=O)COC(=O)CN2C(=O)C3CCCCC3C2=O)c1C (stereo not drawn) | inconclusive [activator, partial curve, poor fit] | – |
| CCN(C(=O)c1cnc(NC(C)C)cc1C(F)(F)F)c1ccc(Cl)cc1Cl | inconclusive [activator, single point] | – |
| O=C(CCCC(=O)Nc1cccc(Br)c1)N/N=C/c1cc([N+](=O)[O-])ccc1O | – | inactive: -2.46% |
| Cc1ccc(Cl)cc1N1CCN(C(=O)CN(C2CCCCC2)S(C)(=O)=O)CC1 | – | inactive: 2.53% |
| CCN(CC#CCC1(O)c2ccccc2-c2ccccc21)CCO | – | inactive: -0.925% |
| CCN(C(=O)CN1C(=O)/C(=C/c2ccc(F)cc2)SC1=S)C1CCS(=O)(=O)C1 (stereo not drawn) | inconclusive [activator, single point] | – |
| O=c1[nH]c(C2CCN(S(=O)(=O)c3ccccc3F)CC2)nc2c1nnn2Cc1ccc(OC(F)(F)F)cc1 | inconclusive [activator, partial curve, poor fit] | – |
| CCCCCC(C)NC(=O)CN1C(=O)NC(C)(c2ccc3ccccc3c2)C1=O (stereo not drawn) | inconclusive [activator, single point] | – |
| CCOC(=O)c1[nH]c(C)c(C(=O)Nc2ccccc2C)c1C | active: 3.66 µM | – |
| COc1ccc([N+](=O)[O-])cc1Nc1c2ccccc2nc2ccccc12 | active: 2.91 µM | – |
| COc1ccc(C)cc1NC(=O)CN1CCN(c2ccc(F)cc2)CC1 | inconclusive [activator, single point] | – |
| Cc1ccccc1Oc1ccc(NC(=O)C2CC=CCC2C(=O)O)cc1 (stereo not drawn) | inconclusive [activator, single point] | – |
| COc1ccc(NC(=O)CSCc2cc(=O)n3c(C)csc3n2)cc1 | – | inactive: 1.92% |
| O=C1Nc2ccccc2/C1=C/c1cccnc1 | inconclusive [activator, single point] | – |
| O=C(NCCC1=CCCCC1)Nc1ccc2nsnc2c1 | inconclusive [activator, single point] | – |
| CCCOc1ccccc1C(=O)Nc1ccc(S(=O)(=O)N2CCN(C)CC2)cc1 | inconclusive [activator, single point] | – |
| CC(C)CN(c1ccccc1)S(=O)(=O)c1nnc(NC(=O)c2ccco2)s1 | – | inactive: 11% |
| O=C(Nc1ccccc1)Nc1cccc2nsnc12 | inconclusive [activator, partial curve, poor fit] | – |
| CCOC(=O)CN1C(=O)C(O)(CC(=O)c2ccc3c(c2)CCCC3)c2ccccc21 (stereo not drawn) | inconclusive [activator, partial curve, poor fit] | – |
| O=C(CSc1nnc(-c2ccc(O)cc2)n1Cc1ccccc1)NNC(=O)c1ccc(Br)cc1 | – | inactive: 0.583% |
| CCn1c(=NC(=O)CSC(C)=O)sc2cc(F)ccc21 | inconclusive [activator, single point] | – |
| O=C(/C=C/c1ccc(Cl)c([N+](=O)[O-])c1)Nc1cccnc1 | inconclusive [activator, single point] | – |
| COc1ccc(OCC(=O)Nc2ccc(N3CCN(C(=O)c4ccccc4)CC3)c(Cl)c2)cc1 | inconclusive [activator, partial curve] | – |

| SMILES | Potency | activity, positive = re-replication |
| --- | --- | --- |
| Cn1c2c(c(=O)[nH]c1=O)C(c1ccc(O)cc1)C1=C(N2)c2ccccc2C1=O (stereo not drawn) | inconclusive [activator, full curve] | – |
| O=S(=O)(c1ccccc1)N(CC(O)Cn1c2ccccc2c2ccccc21)c1ccccc1 (stereo not drawn) | inconclusive [activator, single point] | – |
| CCC(C)NCCC(=O)Nc1ccc(Cl)c(S(=O)(=O)Nc2ccc(Cl)cc2)c1 (stereo not drawn) | active: 13 µM | – |
| Cn1cc(C(=O)NCc2ccc(F)cc2)c(=O)c2cc(S(=O)(=O)N3CCCCC3)ccc21 | inconclusive [activator, single point] | – |
| CCOc1ccc(-c2nnc(Nc3ccc(OC)c(C(=O)N4CCCCC4)c3)c3ccccc23)cc1 | inconclusive [activator, single point] | – |
| CC(C)(C)OC(=O)N1CCC(NC(=O)c2ncn(Cc3ccccc3)c2C(=O)NC2CCN(C(=O)OC(C)(C)C)CC2)CC1 | inconclusive [activator, full curve, poor fit] | – |
| CC(C)c1ccc(C(=O)N/N=C/c2cccc(Cl)c2Cl)cc1 | – | inactive: 3.49% |
| Cc1onc(-c2ccccc2)c1C(=O)Nc1cccc2nsnc12 | inconclusive [activator, single point] | – |
| Cc1ccccc1-c1noc(N)c1C#N | active: 16.4 µM | – |
| Cn1c(=O)c2c(ncn2C[C@@H](O)CO)n(C)c1=O | – | inactive: -2.04% [at 20.6 µM] |
| c1coc(-c2ccnc(-c3ccncc3)n2)c1 | – | inactive: -5.05% |
| COc1ccc(-c2nc(NC(=O)C3CC(=O)N(Cc4ccco4)C3)sc2C)cc1 (stereo not drawn) | inconclusive [activator, single point] | – |
| COc1ccc(C)cc1NC(=O)CN1C(=O)C2CC=CCC2C1=O (stereo not drawn) | – | inactive: 10.5% |
| COc1ccc(CN2CCN(CC3CC3)CC2CCO)c(C)c1C (stereo not drawn) | active: 25.9 µM | – |
| O=C(Nc1ccc(Cl)cc1)C1C2C=CC3(O2)C1C(=O)N(CCCN1CCCCC1)C3C(=O)NC1CCCCC1 (stereo not drawn) | – | inactive: -7.29% |
| Cn1ncc([N+](=O)[O-])c1C(=O)Nc1ccc(C2CCCCC2)cc1 | – | inactive: -3.05% |
| CCCc1cc(=O)oc2c(C)c3occ(C)c3cc12 | inconclusive [activator, single point] | – |
| CCOc1ccc(-n2c(SCc3ccc([N+](=O)[O-])cc3)nnc2-c2ccc(OC)cc2)cc1 | inconclusive [activator, partial curve, poor fit] | – |
| CN(C)CCC(=O)c1ccc(Cl)cc1 | inconclusive [activator, single point] | – |
| CCOC(=O)C1CCCN(C(=O)c2ccc(Cl)c(S(=O)(=O)N3CCc4ccccc43)c2)C1 (stereo not drawn) | inconclusive [activator, partial curve] | – |
| Cc1cc(C)c2nc(Cl)c(C3NC(=O)c4ccccc4N3)cc2c1 (stereo not drawn) | inconclusive [activator, single point] | – |
| CCOc1ccc2nc(N(CCCN(C)C)C(=O)c3ccc4c(c3)CCCC4)sc2c1 | inconclusive [activator, partial curve, poor fit] | – |
| COc1ccccc1C(=O)N1N=C(c2ccc(NS(C)(=O)=O)cc2)CC1c1cccs1 (stereo not drawn) | inconclusive [activator, partial curve] | – |

| SMILES | Potency | activity, positive = re-replication |
| --- | --- | --- |
| COc1ccccc1-c1cc(C(F)(F)F)nc(S(=O)(=O)CCCC(=O)O)n1 | inconclusive [activator, full curve] | – |
| COc1ccccc1C(CNc1ncnc2sc(C)c(C)c12)N(C)C (stereo not drawn) | inconclusive [activator, single point] | – |
| CC1CCC(NC(=O)C2CCN(c3nc4ccccc4s3)CC2)CC1 (stereo not drawn) | – | inactive: 16.9% |
| O=C(CN1CCN(Cc2ccccc2)CC1)Nc1nnc(C(F)(F)F)s1 | inconclusive [activator, single point] | – |
| CCCCCN(C(=O)CCC(=O)OCC(=O)N1CCCC(C)C1)c1c(N)n(CCCC)c(=O)[nH]c1=O (stereo not drawn) | – | inactive: -0.14% |
| CCN(Cc1ccccc1)C(c1ccc(C(F)(F)F)cc1)c1nnnn1C(C)(C)C (stereo not drawn) | inconclusive [activator, partial curve, poor fit] | – |
| COc1ccc(-c2nc(C)ncc2N=Nc2ccccc2)cc1 | inconclusive [activator, partial curve, poor fit] | – |
| CC1CC(=Cc2ccc([N+](=O)[O-])cc2)C(=O)O1 (stereo not drawn) | – | inactive: -0.177% |
| Cn1cnc(C(=O)NC2CCN(C(=O)OC(C)(C)C)CC2)c1C(=O)NC1CCN(C(=O)OC(C)(C)C)CC1 | inconclusive [activator, single point] | – |
| O=S(Cc1ccc(Cl)cc1)CC(O)(c1ccccc1)c1ccccc1 (stereo not drawn) | – | inactive: 0.051% |
| COc1ccc(C/C(C)=N/NC(=O)c2ccncc2)cc1 | inconclusive [activator, single point] | – |
| S=C1NC(c2ccccc2)=NCN1c1ccccc1 | – | inactive: 1.87% |
| O=C(CN1C(=O)C(=O)N(Cc2ccccc2)C1=O)Nc1ccc(OC(F)F)cc1 | – | inactive: 2.25% |
| COc1ccccc1NC(=O)c1ccc(Br)o1 | inconclusive [activator, single point] | – |
| CCCCCc1c(C)nc(Nc2ccccc2)[nH]c1=O | inconclusive [activator, single point] | – |
| Cc1ccc(N(CCC#N)C(=O)COC(=O)C2CCN(c3ccc(C(F)(F)F)cn3)CC2)cc1 | inconclusive [activator, partial curve, poor fit] | – |
| COc1cc(NC(=O)c2ccc(=O)[nH]n2)cc(OC)c1OC | – | inactive: 1.36% |
| COC(=O)C1=C(C)N(Cc2ccccc2)C(=NCc2cccc(C(F)(F)F)c2)N[C@H]1c1cccc(C(F)(F)F)c1 | active: 3.66 µM | – |
| CN(C(=O)c1cccc(NC(=O)Cc2ccc(NC(=O)C3CCCN(C(=O)C4CCCC4)C3)cc2)c1)C1CCCC1 (stereo not drawn) | inconclusive [activator, full curve, poor fit] | – |
| C=CCOc1ccc(/C=C2\SC(=Nc3cccnc3)NC2=O)cc1 | – | inactive: -3.61% |
| N#CC(C#N)=Cc1ccc(NC(=O)c2ccc(Br)cc2)cc1 | inconclusive [activator, single point] | – |
| O=C(Nc1ccccc1N1CCOCC1)c1cc2c(s1)CCCCC2 | inconclusive [activator, single point] | – |

— PubChem BioAssay AID624296 (National Center for Advancing Translational Sciences (NCATS), 2012)
